B1: OR4K15 (parent)
chain: GUUAACGGUCAUAGGCCAUGGAAACUAGGAGCACCAUUUCGCUGCCAGUGAAGAAAUGAACAAAGAAAAUCUGGGCCAGGCAGGCAUCAAAAGAAAUAGUCUUGCGCUCAACCAGAAAGUCUGUAAUCAUUUUAAGGGUA

Read counts are not given, so values of variants with three or more changes are uncertain.

Consider 83 variants from the RNAGym collection of RNA variant scans (doi:10.7554/elife.90254).

The data set covers variants of B1. The data set can be described thus: self-cleavage, relative activity (ratio to wild type); higher = more cleavage; in vitro, sequencing; the parent is a self-cleaving ribozyme.
Regarding U26G A51U A60G A111G, the self-cleavage was 0.01.
Under A24G A55G A126G A135U stands 0.99; under A24U A69G U103G U132C, 0.01; under A24G A129U U132A, 1.07.
With C25U U70C U131C the figure was 0.44; with A24G A64G A116G A118U, 0.25.
As for U26C A62G G75A A92G, the self-cleavage amounted to 0.18.
For the variant A24G U49C A140U, the self-cleavage amounted to 1.57.
Turning to U26C U102C U132C, the self-cleavage stood at 2.2.
Under U26A A27G U87C stands 1.03; under A24G U43A A64G, 1.37.
Turning to U26C A68U A98C, the self-cleavage worked out at 1.56.
With A24G A92G U108C U120G, the self-cleavage stood at 0.03.
Consider U26C A30G A52G A126G, for which the self-cleavage amounted to 0.44.
With U26C U49C A92C, the self-cleavage stood at 1.55.
As to A24G A54G A64G A96G, the self-cleavage worked out at 1.68.
With A24G A52G A55U A82U the figure was 0.53; with A27G A47G A52G, 0.77.
Under U26A A30G A66G stands 0.87.
Under A24U U37C G44A A52U A64G U97C stands 1.81; under A24U A117C U130C, 0.26; under A24G U87C A125G, 0.33.
For C25U A56G U102A, the self-cleavage came to 0.73.
U26C A63G A110G A126G U131C U139C: the self-cleavage was 0.1.
Under A24G U49C A59U A69G G83A U100C stands 0.67; under A24G A114G A129U, 0.08; under A27G A68U A82G U127C U130C, 0.15.
With A24G A51G A114G the figure was 0.24.
For the variant C25U U102C U120C U139C, the self-cleavage was determined as 1.19.
Under A24G A52U U72A stands 0.25.
As to A24U U70C U103G, the self-cleavage was determined as 0.01.
On to A24G U57A A63G U72G, for which the self-cleavage worked out at 0.38.
Consider U26C U39A A91G U120C, for which the self-cleavage was found to be 0.59.
Turning to A24G A59U A95U, the self-cleavage is 1.4.
With A27G A30G A47U A91G, the self-cleavage stood at 0.89.
With A24G A55G U72A A118G the figure was 0.03.
Regarding U26A A96G U139A, the self-cleavage was found to be 2.05.
Consider A24G A47G A62G U72C, for which the self-cleavage was 0.17.
With A24G G79A A94G A114U A125G the figure was 0.01.
Turning to A27G A60G A62U, the self-cleavage was found to be 1.44.
With A24G A66G A69G the figure was 1.43.
Take A24G A52U U57C C77U U108C: the self-cleavage came to 0.01.
Turning to A27G A68G A116G U131C, the self-cleavage came out at 0.91.
Consider A24G A47G U103C A117G U120C, for which the self-cleavage was 0.11.
Consider U26A A52G A68G, for which the self-cleavage was determined as 1.63.
U26C A59G A86G U87C A91G A134U: the self-cleavage is 0.23.
Under A24U A27G U120C U133C G138A stands 1.89.
As to U26C A30G A47G, the self-cleavage is 0.07.
For the variant U26C G74A A111G, the self-cleavage came to 0.03.
Take A27G A54G U87C U103C: the self-cleavage turned out to be 0.77.
Under A24U A64C A94U A98U U108C A117G stands 0.
With A24G U57C A91G U127C U130C G137A the figure was 0.88; with A24G U38C A90G A94U, 0.87.
For the variant A24G U37C U43C A69G, the self-cleavage was determined as 2.22.
A24U A67G U87C: the self-cleavage was determined as 1.13.
With U26C A82U A129G the figure was 0.09; with A24G U37C U43C A63G A66G A96G C105U, 0.11.
Under U26C A51G A116C U139C stands 0.02; under A24G U87C U103C A117G, 0.98; under U26A A92U U102C U132C, 2.27.
Turning to A24G A69G A91G, the self-cleavage is 0.55.
Turning to A24G A66U U127A, the self-cleavage came to 0.87.
Regarding A24G U43A A95G, the self-cleavage is 1.55.
With U26C A47U A63G the figure was 1.22; with A24G U87C A95G U131C, 0.51; with U26C A51U A82U, 0.27.
With A24G A56G A59G U103C, the self-cleavage was 0.94.
With U26C A59G A94G U102C G106A U131C the figure was 0.
Under A24G A78G A95G stands 0.16; under A24U A36G A56G, 0.57; under A24G A55G A59G A60C A82U U103C U133C, 0.05.
In the case of U26A C40A U43C A116G, the self-cleavage amounted to 0.97.
Under U26C A30U A54G A98U U122A stands 1.05.
On to C25U A69G A96G, for which the self-cleavage amounted to 1.67.
With A24G U72C A89G U122A the figure was 0.16; with U26A A51G A67G A140G, 1; with U26C A59G A82U U100C U139A, 0.45.
With A24U U43C A47G A95G the figure was 1.76.
For U26A A90G U97C, the self-cleavage was 1.02.
With A24G A91G U132C the figure was 0.44; with U26A A66U A117G U120C C121U, 1.71.
U26C A69U A118U U132C: the self-cleavage amounted to 0.94.
For A24G G44A U97C U100C A111G, the self-cleavage was 0.05.
